Where “and” joins values, the source holds several entries; their conditions need not be identical. Equal values may be shown once. At least one peptide structure holds a part that was inferred or is arguable (an end, a ring closure or a residue). Some entries repeat one wording, which the source may state once for all of them. Ends that are not written are not given here.
Experiments:
Assay type in all cases: cell-based
[1] = tested on: Ag5 specific spleen cells from BALB/c mice; assay: In vitro proliferation assay, spleen cells of Ag5-immunized BALB/c mice
Procedure: (§1) FIG. 4. Stimulation index profile of BALB/c mice spleens after 4 immunizations with natural (n)-Ag5. In vitro proliferation assays were performed with peptides at three concentrations: 1×10^-5 M (open bar), 1.25×10^-6 M ("uphill" hatch), and 1.56×10^-7 M ("downhill" hatch). The corresponding concentrations of recombinant antigen 5 control were 1.0×10^-6 M, 1.25×10^-7, and 1.56×10^-8 M. The blank was 2200 cpm.
as §1, with “5.” for “4.”, “recombinant (r)-Ag5.” for “natural (n)-Ag5.”, “Antigen” for “antigen”, “5” for “5 control”, “4700” for “2200”
FIG. 6. […] In vitro proliferation assays were performed with peptides at three concentrations: 1×10^-5 M (open bar), 1.25×10^-6 M ("uphill" hatch), and 1.56×10^-7 M ("downhill" hatch). The corresponding concentrations of recombinant Antigen 5 were 1.0×10^-6 M, 1.25×10^-7, and 1.56×10^-8 M. […]
(§2) The peptides of the invention can be tested in a proliferation assay for T cell responses. Generally, lymphocytes from a sensitized host are obtained. The host can be a mouse that has been immunized with a vespid venom antigen 5, or with a crossreactive protein, such as testes specific protein. Using techniques that are well known in the art, T lymphocyte response to the peptide can be measured in vitro. In a specific embodiment, infra, T cell responses are detected by measuring incorporation of ^3 H-thymidine, which increases with DNA synthesis associated with proliferation. Cell proliferation can also be detected using an MTT assay [Mossman, J. Immunol. Methods, 65:55-63,(1983); Niks and Otto, J. Immunol. Methods, 130:140-151 (1990)]. Alternatively, lymphokine production assays can be practiced according to the present invention. In one embodiment, lymphokine production can be assayed using immunological or co-stimulation assays [see, e.g., Fehlner et al., J. Immunol., 146:799 (1991)] or using the ELISPOT technique [Czerkinsky, et al., J. Immunol. Methods, 110:29 (1988)]. Alternatively, mRNA for lymphokines can be detected, e.g., by amplification [see Brenner, et al., Biotechniques, 7:1096 (1989)] or in situ hybridization [see, e.g., Kasaian and Biron, J. Immunol., 142:1287 (1989)]. Of particular interest are those individuals whose T cells produce lymphokines associated with IgE isotype switch events, e.g., IL-4 and IL-5 [Purkeson and Isakson, J. Exp. Med., 175:973-982 (1992)]. Also of interest are the peptide fragments of the vespid venom antigen 5 that contain epitopes recognized by T cells involved in IgE switch events. Any method for detecting T cell proliferation known in the art can be used with the immunodominant vespid antigen 5 peptides obtained according to the present invention.
(§3) In the present Example, a series of 15 to 20-residue peptides with 10-residue overlaps to encompass the entire white faced hornet Ag5 molecule (form 2) was synthesized. These peptides were used for mapping T cell epitopes of hornet Ag5 by their stimulation of specific murine spleen cells immunized with native or recombinant Antigen 5. These peptides were also used to study the cross reacting T cell epitopes of hornet antigen 5 and a mouse testis protein Tpx [Mizuku et al., Mammalian Genome, 3:274-280 (1992)].
T cell response in BALB/c mice to natural hornet Ag5 and its recombinant protein or fragments. FIGS. 4 and 5 show the proliferative responses of spleen cells from BALB/c mice immunized 4 times with n- and r-Ag5 respectively. […] Previous studies have shown that r-Ag5 lacks the discontinuous B cell epitopes of n-Ag5, as r-Ag5 is not properly folded with the disulfide bonds of n-Ag5 [King et al., J. Immunol., 154:577-584 (1995)]. […] Higher proliferative responses were observed than those in FIG. 5, where mice were immunized 4 times with r-Ag5. […]

[2] = tested on: Tpx-N primed spleen cells from BALB/c mice; assay: In vitro proliferation assay, Tpx-N primed spleen cells; conditions: BALB/c mice after 4 immunizations with r-fragment Tpx-N (residue 14-106)
Procedure: FIG. 15. Stimulation index profile of BALB/c mice spleen cells after 4 immunizations with Tpx-N. Stimulation was tested with peptide or protein at three different concentrations: Open bars--1.0×10^-5 M peptide or Frag IN, 2.5×10^-6 M Tp X-N; "uphill" hatch--1.25×10^-6 M peptide or Frag IN. 3.13×10^-7 M, Tpx-N; "downhill" hatch--1.5×10^-7 M peptide and Frag IN, 3.91×10^-8 M Tpx-N; and stippled --1.96×10^-8 M Frag IN, 4.89×10^-9 M Tpx-N. The blank was 7270 cpm.
as §2, with “Also of interest are the peptide fragments of the vespid venom antigen 5 that contain epitopes recognized by T cells involved in IgE switch events. Any method for detecting T cell proliferation known in the art can be used with the immunodominant vespid antigen 5 peptides obtained according to the present invention.” left out

[3] = tested on: r-Ag5 specific spleen cells from C3H/He mice; assay: In vitro proliferation assay, spleen cells of r-Ag5-immunized C3H/He mice; conditions: spleen cells from mice immunized 5 times with rAg5; blank 3130 cpm
Procedure: (§4) FIG. 13. Stimulation index profile of C3H/He mice spleens after 5 immunizations with r-Ag5. In vitro proliferation assays were performed with peptides at three concentrations: 1×10^-5 M (open bar), 1.25×10^-6 M ("uphill" hatch), and 1.56×10^-7 M ("downhill" hatch). The corresponding concentrations of recombinant Antigen 5 were 1.0×10^-6 M, 1.25×10^-7, and 1.56×10^-8 M. The blank was 3130 cpm.
as §2, §3
T cell response in mice of different haplotypes to recombinant hornet Ag5. FIGS. 11 to 13 show the proliferative response of spleen cells for mice of ASW/Sn, P/J, and C3H/He, respectively. The results for ASW/Sn mice in FIG. 11 indicate that there are four peptides with stimulation indices of ≥4: peptides 6, 7, 9, and 18. The results for P/J mice in FIG. 12 show multiple peptides with stimulation indices of ≥4: peptides 1, 2, 5, 9, 12, 13, 14, 15, 20, and 17. The data for C3H/He mice in FIG. 12 indicate three peptides with stimulation indices of ≥4: peptides 2, 5 and 15.

[4] = tested on: r-Ag5 specific spleen cells from mice of different strains; assay: Summary of proliferation indices across mouse strains; conditions: four strains BALB/c, ASW/Sn, C3H/He, P/J, C57B1/6 excluded
From the text: Summary of proliferation indices of r-Ag5 specific spleen
cells from mice of different strains on stimulation with the
dominant T cell epitope peptides^1
^1 Dominant T cell epitopes are defined as those peptides which showe
stimulation indices of ≥4 in at least one of 5 strains of mice
The present Example defines indices of 4 or greater for proliferation of Ag5- specific cells as containing a T cell epitope of Ag5. With this definition, the data in FIGS. 3-13 for mice of 5 strains with different haplotypes would indicate that the T cell epitopes of Ag5 are distributed throughout the entire molecule. As C57B1/6 mice is a poor responder, its data are excluded in the following comparison.
The data in Table 4 indicate that 14 peptides contain T cell epitopes of Ag5. Three of these peptides are recognized by three of the four strains tested, five of them by two strains and the remaining six by only one strain. […] They are peptides 1, 2, 5, 6, 9, 15, 20 and 18. […] This is particularly apparent for peptides 6, 20, and 18.

[5] = tested on: r-Ag5 specific spleen cells from C57B1/6 mice; assay: In vitro proliferation assay, spleen cells of r-Ag5-immunized C57B1/6 mice; conditions: spleen cells from mice immunized 5 times with rAg5; blank 1050 cpm
Procedure: as §4, with “14.” for “13.”, “CS7B1/6” for “C3H/He”, “1.56×10 ^-7” for “1.56×10^-7”, “1050” for “3130”
as §2, §3

[6] = tested on: r-Ag5 specific spleen cells from P/J mice; assay: In vitro proliferation assay, spleen cells of r-Ag5-immunized P/J mice; conditions: spleen cells from mice immunized 5 times with rAg5; blank 1730 cpm
Procedure: as §4, with “12.” for “13.”, “P/J” for “C3H/He”, “1.0 ×10^-6” for “1.0×10^-6”, “1730” for “3130”
as §2, §3
T cell response in mice of different haplotypes to recombinant hornet Ag5. […]

| Sequence | Stimulation Index BALB/c ([1]; spleen cells from mice immunized with rAg5, blank 3970 cpm) | stimulation indices, Tpx-N primed spleen cells (FIG. 15) [2] | Stimulation Index C3H/He [3] | recognition by more than one mouse strain (stimulation indices of ≥4) [4] | recognition by more than one mouse strain (stimulation indices of ≥4) ([4]; listed as SEQ ID NO:16) | Stimulation Index C57B1/6 [5] | Stimulation Index BALB/c (values in parentheses) ([1]; spleen cells from 4 times rAg5 immunized mice) | Stimulation Index P/J [6] |
| --- | --- | --- | --- | --- | --- | --- | --- | --- |
| DELAKIAQTWANQCDFNHDD [Peptide 9] | 3.8 | about 3 | 2.7 | recognized by two or three strains of mice | dominant in more than one strain of mouse | ~4 and 3.9 |  |  |
| TRGKPGPQPPAKNMNVLVWN [Peptide 7] |  | about 3 | 2.2 |  |  | 2.1 | 0.9 | 3.3 |
